Assay results taken from PubChem BioAssay AID1346428 (National Center for Advancing Translational Sciences (NCATS), 2018).
Values joined by “and” are separate entries in the source; they are usually repeats but may differ in a detail not shown here. Equal entries are not always repeated. Out of some 48,000 compounds screened, about 1,200 (2.5%) were called active. Not shown: some 2% with an inconclusive outcome.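 How the source made its calls: active means activation of at least 60% and not above a set upper limit (about 1 call in 100 departs from these limits); inconclusive means activation of 40% to 60%, or above that upper limit; inactive means activation under 40%.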 The list shows a part of the results.

Target: Probable G-protein coupled receptor 32 (Homo sapiens) (UniProt O75388)
Experiment: qHTS for Agonists of Human Resolvin D1 Receptor DRV1
Settings: CHO-K1 GPR32 beta-arrestin PathHunter luminescence, 90 min; at 76.9 µM; stronger effect = higher value; zero percent set by DMSO-only wells
Method in brief: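 Using DMSO wells as EC0, agonist-induced signal was taken as chemiluminescence from beta-Gal reconstituted upon beta-arrestin recruitment to GPR32 in CHO-K1 cells after 90 min compound treatment.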

UniProt O75388, sequence (O75388 whole entry, looked up): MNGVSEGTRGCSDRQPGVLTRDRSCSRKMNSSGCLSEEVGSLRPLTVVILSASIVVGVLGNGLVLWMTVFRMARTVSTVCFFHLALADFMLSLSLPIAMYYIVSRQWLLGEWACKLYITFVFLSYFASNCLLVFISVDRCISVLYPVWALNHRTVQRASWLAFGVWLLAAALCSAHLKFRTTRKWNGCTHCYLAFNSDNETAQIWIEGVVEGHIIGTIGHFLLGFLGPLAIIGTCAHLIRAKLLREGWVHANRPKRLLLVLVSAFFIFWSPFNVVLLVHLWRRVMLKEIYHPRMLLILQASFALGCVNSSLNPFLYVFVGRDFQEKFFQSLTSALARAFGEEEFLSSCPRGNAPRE

activation, inactive:
CCOc1ccc(C2CC(=O)c3c([nH]c(C(=O)OC4CCC(C)CC4)c3C)C2)cc1 (stereo not given) -5.8%
COc1ccccc1N1CCN(C(=O)CN2C(=O)COc3ccc(S(=O)(=O)N4CCCC4)cc32)CC1 -9.66%
Cc1ccc(CN(Cc2cccn2-c2nnc(N3CCCC3=O)s2)C(=O)Nc2ccccc2C(F)(F)F)cc1 -25.4%
Cc1ccc(CNC(=O)Cn2c(=O)n(Cc3ccccc3)c(=O)c3sc4ccccc4c32)cc1 -2.31%
CCOC(=O)c1c(C)oc2nc(C)nc(NCCCN3CCN(c4ccc(F)cc4)CC3)c12 -1.22%
Cc1ccc(C(C)C)c(OCCCn2c(=O)oc3ccccc32)c1 -3.73%
COc1ccccc1NC(=O)c1ccc2oc(=O)c(S(=O)(=O)c3ccccc3)cc2c1 3.48%
COc1ccc(C(=O)NCCn2cc(SCc3cc(C)ccc3C)c3ccccc32)cc1 -24.3%
Cc1cc(N2CCN(c3cccc(C)c3C)CC2)n2nc(C)c(-c3ccc(Cl)cc3)c2n1 -4.32%
COc1ccc(-n2c(-c3ccco3)nc3c(cnn3-c3ccccc3C)c2=O)cc1 -5.39%
Cc1ccccc1CNC(=O)c1cc2cc(S(=O)(=O)N3CCCCC3)ccc2n1C -11.8%
CCOc1ccc(C2c3c(oc4ccccc4c3=O)C(=O)N2c2nnc(C)s2)cc1OC (stereo not given) -2.67%
Cc1cc(C)n2c(Nc3ccccc3)c(-c3ccccc3)nc2n1 -26%
Cc1cc(C)c2oc(C(=O)Nc3ccc(S(=O)(=O)N4CCC(C)CC4)cc3)cc(=O)c2c1 -0.498%
Cc1ccc(CN2CCN(C3CCN(C(=O)Nc4ccccc4C(F)(F)F)CC3)C(=O)C2=O)cc1 -2.69%
Cc1cccc(Cn2cnc3c(cnn3-c3ccc(Cl)cc3)c2=O)c1 -0.874%
Cn1c(CNC(=O)CSc2nc(-c3cccc(Cl)c3)nc3cc(=O)[nH]n23)nc2ccccc21 13%
CCn1c(=O)cc(OCC(=O)N2CCN(c3ccccc3OC)CC2)c2ccccc21 25.8%
Cc1ccc(S(=O)(=O)n2nc(-c3ccco3)nc2NCc2ccccc2Cl)cc1 -21.2%
COc1cccc(NC(=O)C2CCN(c3nc4ccccc4nc3C(F)(F)F)CC2)c1 -22.2%
Cc1cccc(Cn2nnc(C(=O)Nc3cc(C)ccc3C)c2N)c1 15.6%
Cc1cccc(C)c1NC(=O)CCCN1C(=O)CCn2nc(-c3cn(C)c4ccccc34)cc21 11.7%
CC(C)NC(=O)C1CCCN(c2ncnc3c2nc2n3CCCCC2)C1 (stereo not given) -4.96%
CC(NC(=O)c1ccc2c(c1)N(Cc1ccc(Cl)cc1)C(=O)c1ccccc1S2=O)c1ccccc1 (stereo not given) -4.43%
Cc1ccc(CNC(=O)CCCn2c(=O)c3ccccc3n(Cc3ccccc3C)c2=O)cc1 -8.39%
COc1ccc(Cl)cc1NC(=O)Cn1cnc2c1c(=O)n(C)c(=O)n2C 1.25%
O=C(Nc1ccccc1C(=O)OCc1cc(=O)n2ccsc2n1)c1ccc(Cl)cc1 3.67%
O=C(COCc1cc(-c2ccc(F)cc2)on1)Nc1cccc(Cl)c1Cl -12.8%
CCCc1cc(=O)[nH]c2nnc(SCC(=O)Nc3ccc(OC)cc3)n12 -9.61%
COc1cccc(N2CCN(c3ncnc4c3c(-c3ccccc3)cn4-c3ccc(C)cc3)CC2)c1 -15.5%
CC(=O)Nc1c(I)c(NC(C)=O)c(I)c(C(=O)O)c1I -6.68%
O=C(NCc1cccn1Cc1ccccc1)Nc1ccc(Br)cc1F -6.28%
Cc1ccc(S(=O)(=O)c2nnn3c2nc(NC(C)c2ccccc2)c2sccc23)cc1 (stereo not given) -13.9%
COc1cc2nc(N3CCN(C(=O)OCc4ccccc4)C(C(=O)NC(C)(C)C)C3)nc(N)c2cc1OC (stereo not given) -21.3%
CCOc1ccc(N2CC(NC(=O)c3ccc(S(=O)(=O)N4CCCC4)cc3)CC2=O)cc1 (stereo not given) -6.31%
Cc1ccc(Cl)cc1NC(=O)Nc1nnc(N2CCCC(C)C2)s1 (stereo not given) -0.904%
COc1ccccc1CNC(=O)CCNS(=O)(=O)c1ccc2c(c1)CCCC(=O)N2 16.6%
CCOC(=O)c1c(C)[nH]c(C)c1S(=O)(=O)NCC(=O)NCc1ccc(C)cc1 -40.4%
CCN(CC)S(=O)(=O)c1ccc2c(c1)nc(CN(C)C(=O)Nc1ccc(Cl)cc1)n2C 2.49%
Cc1ccc(S(=O)(=O)NC(=O)NC2CCCCC2)cc1 -9.92%
Cc1ccc(NC(=O)CNC(=O)Cn2c(C)cc3ccccc3c2=O)cc1F -7.8%
O=C(Cn1c(=O)n(Cc2ccc(Cl)cc2)c(=O)c2cccnc21)Nc1ccccc1C(F)(F)F -2.66%
CN(Cc1ccc(F)cc1)S(=O)(=O)c1nnc(NC(=O)c2ccccc2Br)s1 6.2%
Cn1c(=O)oc2cc(S(=O)(=O)N3CCC(C(=O)NCc4ccccc4)CC3)ccc21 16.9%
O=C(NCc1cccn1Cc1ccccc1)Nc1cccc(C(F)(F)F)c1 12.5%
CCOC(=O)c1c(C)c(-c2ccccc2)n(CC(=O)NCc2cccc(OC)c2)c1C 42.9%
Cc1ccc([N+](=O)[O-])cc1S(=O)(=O)N1CCn2cccc2C1c1ccccc1F (stereo not given) -7.31%
COCCNC(=O)c1c(-c2ccccc2)c(-c2ccccc2)nn(C)c1=O -11.9%
Cc1ccc(-n2nc3c(=O)n(CCCC(=O)NCc4ccccc4C)nc(C)c3c2C)cc1 -1.32%
CCc1cc(C(N)=S)ccn1 -48.2%
Cc1cccc(-c2nc3scc(CCNS(=O)(=O)c4c(C)noc4C)n3n2)c1 -4.58%
Cc1ccc(F)cc1NC(=O)CCc1c(C)nn(-c2ccc(N3CCCC3)nn2)c1C 4.31%
CCOC(=O)c1c(SCC(=O)Nc2nc3ccccc3s2)nc(=O)[nH]c1C 13.2%
CCC(Sc1nnc(C)n2c1cc1sccc12)C(=O)Nc1ccccc1F (stereo not given) -33.4%
CCOc1ccccc1C(=O)Nc1ccc(S(=O)(=O)Nc2onc(C)c2C)cc1 3.55%
CC(=O)c1ccc(NC(=O)Cn2cnc3nc4c(cc3c2=O)CC(C)CC4)cc1 (stereo not given) -1.12%
CCOc1cccc(C2c3[nH]c4ccccc4c3CCN2C(=O)c2ccccc2F)c1 (stereo not given) -30.9%
Cc1ccc(NC(=O)CSc2nc3ccc(NC(=O)c4cccs4)cc3s2)cc1 10.5%
CCOC(=O)c1cnc2cc(C(F)(F)F)ccc2c1N1CCN(c2cccc(Cl)c2)CC1 -7.75%
CCOc1cc(CNC(=O)c2ccc(Cn3c(=O)c4cccn4c4cccnc43)cc2)ccc1OC -15.8%
Cn1nnc2c(N3CCN(c4ccccc4)CC3)ncnc21 -2.75%
COCCn1c(SCC(=O)c2ccc(C)cc2C)nc2cc(C(=O)NC3CCCC3)ccc2c1=O -0.997%
Cc1cc2ccccc2n1CCNC(=O)c1cc(C(F)(F)F)cc(C(F)(F)F)c1 -0.726%
CC(C)COc1ccc(C2=NC(c3ccncc3)=Nc3ccc(F)cc3N2)cc1 -2%
CC(=O)Nc1ccc(S(=O)(=O)Nc2ccc([N+](=O)[O-])cc2)cc1 -69.7%
COC(=O)[C@H]1[C@H]2C[C@@H]3c4[nH]c5cc(OC)ccc5c4CCN3C[C@H]2C[C@@H](OC(=O)/C=C/c2ccc(O)c(OC)c2)[C@@H]1OC -4.29%
CCOc1ccc(N(CC)S(=O)(=O)N2CCCC(C(=O)Nc3cc(Cl)ccc3C)C2)cc1 (stereo not given) -16.2%
COC(=O)c1cc(NC(=O)c2nn(C)c3c2CSc2ccccc2-3)cc(C(=O)OC)c1 -3.15%
Cc1ccc(C(=O)Nc2ccc(S(=O)(=O)O)c3cc(S(=O)(=O)O)cc(S(=O)(=O)O)c23)cc1NC(=O)c1cccc(NC(=O)Nc2cccc(C(=O)Nc3cc(C(=O)Nc4ccc(S(=O)(=O)O)c5cc(S(=O)(=O)O)cc(S(=O)(=O)O)c45)ccc3C)c2)c1 -1.91% and -14.5%
CN1CCN(C(=O)Cn2c(-c3cccs3)cc3cc(Cl)ccc32)CC1 -5.88%
Cc1ccc(Cl)cc1N1CCN(C(=O)C2CCN(S(=O)(=O)c3cccc4nonc34)CC2)CC1 -2.6%
Cc1ccccc1OC(=O)CSc1nnc(-c2ccc3c(c2)OCO3)o1 -1.08%
CC(=O)c1c(C)oc2c(Br)cc(NS(=O)(=O)c3ccc(Br)cc3)cc12 -0.638%
O=C(c1noc2c1CCCCC2)N1CCN(c2cccc(C(F)(F)F)c2)CC1 -12.2%
COc1ccccc1CNc1nc2ccc(Cl)cc2n2cnnc12 -20.6%
CC(C)c1ccc(NC(=O)c2cc(S(=O)(=O)N3CCCCC3)cn2C)cc1 10.1%
CCCCN(CC)CCCNC(=O)Cn1ncc2c3ccccc3n(Cc3ccccc3F)c2c1=O -17.6%
CCOc1ccc(-c2cc3c(=O)n(Cc4nc(-c5ccc(OC(C)C)cc5)oc4C)ccn3n2)cc1Cl -11%
CCN(CC)CCNC(=O)c1ccc(CSc2nc3ccncc3n2Cc2cccc(F)c2)cc1 4.46%
CC(C)(C)c1ccc(C(=O)N2CCC(c3nc(-c4ccc(S(=O)(=O)N5CCCC5)cc4)no3)CC2)cc1 -4.46%
